Some of the results follow.
Each sequence was assayed against T1, MBP-FoxP1dN (Mus musculus, UniProt P58462 326-579) (assay: PD-seq (MBP pull-down with sequencing); 20 mM Tris-HCl pH 7.5, 100 mM NaCl, 1.5 mM MgCl2, 0.4 uM protein, 0.1 uM dsDNA library, 30 min, room temperature, amylose pull-down; high values mean tight binding). Details: protein: recombinant; tags: His6-MBP; chain copies: 2; dsDNA, one strand shown.
T1 sequence: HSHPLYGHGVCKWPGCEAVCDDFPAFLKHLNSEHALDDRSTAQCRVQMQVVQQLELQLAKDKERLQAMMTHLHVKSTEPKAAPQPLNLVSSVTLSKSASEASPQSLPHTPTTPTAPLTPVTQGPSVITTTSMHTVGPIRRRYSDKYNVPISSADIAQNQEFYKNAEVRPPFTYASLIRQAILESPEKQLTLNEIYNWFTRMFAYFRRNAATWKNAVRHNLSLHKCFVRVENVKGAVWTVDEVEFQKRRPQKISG
Method in brief: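 His6-MBP-tagged mouse FoxP3 or FoxP1 fragment lacking the N-terminus, expressed in E. coli, was mixed at 0.4 µM with 0.1 µM Klenow-filled double-stranded degenerate DNA library. Incubation was 30 min at room temperature in Tris pH 7.5 buffer with NaCl and MgCl2. Complexes were caught on amylose resin and washed three times; DNA was released with proteinase K, PCR-barcoded and Illumina-sequenced. Binding is reads-per-million enrichment, pull-down over input, with replicates pooled.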
“GATGATTGTTCTCCCAGCTGATGAATTAATTACATCGAGTAAACAAATTTTCCTAATCTTTCTGTTCAAGCGCCATCTAC” was tested, and the binding signal was 1.26 RPM ratio (pull-down/input).
In the case of “GATGATTGTTCTCCCAGCTGATGAATTAAAGTTATCGAGTAAACAAATTTTCCTAATCTTTCTGTTCAAGCGCCATCTAC”, the binding signal is reported as 1.13 RPM ratio (pull-down/input).
For “GATGATTGTTCTCCCAGCTGATGAATTGACTCAATCGAGTAAACAAATTTTCCTAATCTTTCTGTTCAAGCGCCATCTAC”, the binding signal was 1.11 RPM ratio (pull-down/input).
“GATGATTGTTCTCCCAGCTGATGAATTAATCATTTCGAGTAAACAAATTTTCCTAATCTTTCTGTTCAAGCGCCATCTAC” was tested, and the binding signal was 0.991 RPM ratio (pull-down/input).
In the case of “GATGATTGTTCTCCCAGCTGATGAATTCACCAAGTCGAGTAAACAAATTTTCCTAATCTTTCTGTTCAAGCGCCATCTAC”, the binding signal is reported as 0.776 RPM ratio (pull-down/input).
For “GATGATTGTTCTCCCAGCTGATGAATTTACTGCTTCGAGTAAACAAATTTTCCTAATCTTTCTGTTCAAGCGCCATCTAC”, the binding signal was 1.15 RPM ratio (pull-down/input).
“GATGATTGTTCTCCCAGCTGATGAATTTCGAATTTCGAGTAAACAAATTTTCCTAATCTTTCTGTTCAAGCGCCATCTAC” was tested, and the binding signal was 0.897 RPM ratio (pull-down/input).
“GATGATTGTTCTCCCAGCTGATGAATTAGGCCACTCGAGTAAACAAATTTTCCTAATCTTTCTGTTCAAGCGCCATCTAC” was tested, and the binding signal was 0.876 RPM ratio (pull-down/input).
For “GATGATTGTTCTCCCAGCTGATGAATTTGCTTTTTCGAGTAAACAAATTTTCCTAATCTTTCTGTTCAAGCGCCATCTAC”, the binding signal was 1.21 RPM ratio (pull-down/input).
In the case of “GATGATTGTTCTCCCAGCTGATGAATTACCCTGCTCGAGTAAACAAATTTTCCTAATCTTTCTGTTCAAGCGCCATCTAC”, the binding signal is reported as 0.856 RPM ratio (pull-down/input).
In the case of “GATGATTGTTCTCCCAGCTGATGAATTGCGGATGTCGAGTAAACAAATTTTCCTAATCTTTCTGTTCAAGCGCCATCTAC”, the binding signal is reported as 1.11 RPM ratio (pull-down/input).
“GATGATTGTTCTCCCAGCTGATGAATTTAGCTATTCGAGTAAACAAATTTTCCTAATCTTTCTGTTCAAGCGCCATCTAC” was tested, and the binding signal was 1 RPM ratio (pull-down/input).
In the case of “GATGATTGTTCTCCCAGCTGATGAATTAGTCATCTCGAGTAAACAAATTTTCCTAATCTTTCTGTTCAAGCGCCATCTAC”, the binding signal is reported as 0.918 RPM ratio (pull-down/input).
“GATGATTGTTCTCCCAGCTGATGAATTACGATCATCGAGTAAACAAATTTTCCTAATCTTTCTGTTCAAGCGCCATCTAC” was tested, and the binding signal was 0.984 RPM ratio (pull-down/input).
In the case of “GATGATTGTTCTCCCAGCTGATGAATTGTTGCCCTCGAGTAAACAAATTTTCCTAATCTTTCTGTTCAAGCGCCATCTAC”, the binding signal is reported as 1.42 RPM ratio (pull-down/input).
For “GATGATTGTTCTCCCAGCTGATGAATTGCTAGCGTCGAGTAAACAAATTTTCCTAATCTTTCTGTTCAAGCGCCATCTAC”, the binding signal was 0.999 RPM ratio (pull-down/input).
For “GATGATTGTTCTCCCAGCTGATGAATTTGAAGTTTCGAGTAAACAAATTTTCCTAATCTTTCTGTTCAAGCGCCATCTAC”, the binding signal was 0.792 RPM ratio (pull-down/input).
“GATGATTGTTCTCCCAGCTGATGAATTCCAGGCTTCGAGTAAACAAATTTTCCTAATCTTTCTGTTCAAGCGCCATCTAC” was tested, and the binding signal was 0.758 RPM ratio (pull-down/input).
“GATGATTGTTCTCCCAGCTGATGAATTCAAAGCTTCGAGTAAACAAATTTTCCTAATCTTTCTGTTCAAGCGCCATCTAC” was tested, and the binding signal was 0.827 RPM ratio (pull-down/input).
In the case of “GATGATTGTTCTCCCAGCTGATGAATTTCGACCCTCGAGTAAACAAATTTTCCTAATCTTTCTGTTCAAGCGCCATCTAC”, the binding signal is reported as 0.754 RPM ratio (pull-down/input).
For “GATGATTGTTCTCCCAGCTGATGAATTCTGACGTTCGAGTAAACAAATTTTCCTAATCTTTCTGTTCAAGCGCCATCTAC”, the binding signal was 0.859 RPM ratio (pull-down/input).
For “GATGATTGTTCTCCCAGCTGATGAATTAAGCCGCTCGAGTAAACAAATTTTCCTAATCTTTCTGTTCAAGCGCCATCTAC”, the binding signal was 0.865 RPM ratio (pull-down/input).
With “GATGATTGTTCTCCCAGCTGATGAATTAGGTGATTCGAGTAAACAAATTTTCCTAATCTTTCTGTTCAAGCGCCATCTAC” the binding signal was 1.06 RPM ratio (pull-down/input).
With “GATGATTGTTCTCCCAGCTGATGAATTACTAGCGTCGAGTAAACAAATTTTCCTAATCTTTCTGTTCAAGCGCCATCTAC” the binding signal was 0.999 RPM ratio (pull-down/input).
With “GATGATTGTTCTCCCAGCTGATGAATTTCACCTTTCGAGTAAACAAATTTTCCTAATCTTTCTGTTCAAGCGCCATCTAC” the binding signal was 0.845 RPM ratio (pull-down/input).
“GATGATTGTTCTCCCAGCTGATGAATTCAGCAATTCGAGTAAACAAATTTTCCTAATCTTTCTGTTCAAGCGCCATCTAC” was tested, and the binding signal was 1.02 RPM ratio (pull-down/input).
In the case of “GATGATTGTTCTCCCAGCTGATGAATTCGCGTCTTCGAGTAAACAAATTTTCCTAATCTTTCTGTTCAAGCGCCATCTAC”, the binding signal is reported as 0.909 RPM ratio (pull-down/input).
For “GATGATTGTTCTCCCAGCTGATGAATTGGTGGTTTCGAGTAAACAAATTTTCCTAATCTTTCTGTTCAAGCGCCATCTAC”, the binding signal was 0.966 RPM ratio (pull-down/input).
In the case of “GATGATTGTTCTCCCAGCTGATGAATTTGCGGCATCGAGTAAACAAATTTTCCTAATCTTTCTGTTCAAGCGCCATCTAC”, the binding signal is reported as 1.02 RPM ratio (pull-down/input).
“GATGATTGTTCTCCCAGCTGATGAATTGGGAGTTTCGAGTAAACAAATTTTCCTAATCTTTCTGTTCAAGCGCCATCTAC” was tested, and the binding signal was 0.853 RPM ratio (pull-down/input).
In the case of “GATGATTGTTCTCCCAGCTGATGAATTCTGCGCATCGAGTAAACAAATTTTCCTAATCTTTCTGTTCAAGCGCCATCTAC”, the binding signal is reported as 1.12 RPM ratio (pull-down/input).
With “GATGATTGTTCTCCCAGCTGATGAATTGCTCAGTTCGAGTAAACAAATTTTCCTAATCTTTCTGTTCAAGCGCCATCTAC” the binding signal was 0.973 RPM ratio (pull-down/input).

— article PMC12820563, “FoxP3 forms a head-to-head dimer in vivo and stabilizes its multimerization on adjacent microsatellites”
